This is one part of the list.
Biological target: T1, MBP-FoxP1dN (Mus musculus, UniProt P58462 326-579)
T1 sequence: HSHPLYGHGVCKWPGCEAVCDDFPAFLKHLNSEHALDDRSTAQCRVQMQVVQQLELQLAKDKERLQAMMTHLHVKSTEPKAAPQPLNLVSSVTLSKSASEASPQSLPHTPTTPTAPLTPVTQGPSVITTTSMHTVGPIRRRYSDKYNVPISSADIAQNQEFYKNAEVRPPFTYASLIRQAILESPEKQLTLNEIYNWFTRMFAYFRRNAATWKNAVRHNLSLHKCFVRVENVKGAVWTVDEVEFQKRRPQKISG
Assay: PD-seq (MBP pull-down with sequencing); 20 mM Tris-HCl pH 7.5, 100 mM NaCl, 1.5 mM MgCl2, 0.4 uM protein, 0.1 uM dsDNA library, 30 min, room temperature, amylose pull-down; high values mean tight binding
Settings: protein: recombinant; tags: His6-MBP; chain copies: 2; dsDNA, one strand shown
In short: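 Amylose resin was used to capture complexes formed during 30 min at room temperature in Tris pH 7.5 buffer with NaCl and MgCl2 between 0.4 µM His6-MBP-tagged mouse FoxP3 or FoxP1 fragment lacking the N-terminus, expressed in E. coli, and 0.1 µM Klenow-filled double-stranded degenerate DNA library. After three washes, the DNA was released with proteinase K, barcoded by PCR and sequenced on Illumina. Binding is pooled-replicate reads-per-million enrichment, pull-down over input.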

Sequence | binding signal
GATGATTGTTCTCCCAGCTGATGAATTTTAGAACTCGAGTAAACAAATTTTCCTAATCTTTCTGTTCAAGCGCCATCTAC | 0.818 RPM ratio (pull-down/input)
GATGATTGTTCTCCCAGCTGATGAATTTCGAGAATCGAGTAAACAAATTTTCCTAATCTTTCTGTTCAAGCGCCATCTAC | 0.908 RPM ratio (pull-down/input)
GATGATTGTTCTCCCAGCTGATGAATTGCGAGTATCGAGTAAACAAATTTTCCTAATCTTTCTGTTCAAGCGCCATCTAC | 1.1 RPM ratio (pull-down/input)
GATGATTGTTCTCCCAGCTGATGAATTTGACCAGTCGAGTAAACAAATTTTCCTAATCTTTCTGTTCAAGCGCCATCTAC | 0.822 RPM ratio (pull-down/input)
GATGATTGTTCTCCCAGCTGATGAATTACAATGGTCGAGTAAACAAATTTTCCTAATCTTTCTGTTCAAGCGCCATCTAC | 1.12 RPM ratio (pull-down/input)
GATGATTGTTCTCCCAGCTGATGAATTTGCTATGTCGAGTAAACAAATTTTCCTAATCTTTCTGTTCAAGCGCCATCTAC | 1.06 RPM ratio (pull-down/input)
GATGATTGTTCTCCCAGCTGATGAATTAGCGCTCTCGAGTAAACAAATTTTCCTAATCTTTCTGTTCAAGCGCCATCTAC | 0.849 RPM ratio (pull-down/input)
GATGATTGTTCTCCCAGCTGATGAATTTGCGCACTCGAGTAAACAAATTTTCCTAATCTTTCTGTTCAAGCGCCATCTAC | 0.994 RPM ratio (pull-down/input)
GATGATTGTTCTCCCAGCTGATGAATTCATGCTCTCGAGTAAACAAATTTTCCTAATCTTTCTGTTCAAGCGCCATCTAC | 0.888 RPM ratio (pull-down/input)
GATGATTGTTCTCCCAGCTGATGAATTTTAGCAATCGAGTAAACAAATTTTCCTAATCTTTCTGTTCAAGCGCCATCTAC | 1.31 RPM ratio (pull-down/input)
GATGATTGTTCTCCCAGCTGATGAATTGGTCCCTTCGAGTAAACAAATTTTCCTAATCTTTCTGTTCAAGCGCCATCTAC | 0.888 RPM ratio (pull-down/input)
GATGATTGTTCTCCCAGCTGATGAATTCCGATATTCGAGTAAACAAATTTTCCTAATCTTTCTGTTCAAGCGCCATCTAC | 0.864 RPM ratio (pull-down/input)
GATGATTGTTCTCCCAGCTGATGAATTTTCAGTTTCGAGTAAACAAATTTTCCTAATCTTTCTGTTCAAGCGCCATCTAC | 0.914 RPM ratio (pull-down/input)
GATGATTGTTCTCCCAGCTGATGAATTGGATTCCTCGAGTAAACAAATTTTCCTAATCTTTCTGTTCAAGCGCCATCTAC | 0.727 RPM ratio (pull-down/input)
GATGATTGTTCTCCCAGCTGATGAATTTATTGAATCGAGTAAACAAATTTTCCTAATCTTTCTGTTCAAGCGCCATCTAC | 1.28 RPM ratio (pull-down/input)
GATGATTGTTCTCCCAGCTGATGAATTTGTACATTCGAGTAAACAAATTTTCCTAATCTTTCTGTTCAAGCGCCATCTAC | 1.23 RPM ratio (pull-down/input)

Sequence | binding signal
GATGATTGTTCTCCCAGCTGATGAATTCAACGTTTCGAGTAAACAAATTTTCCTAATCTTTCTGTTCAAGCGCCATCTAC | 0.889 RPM ratio (pull-down/input)
GATGATTGTTCTCCCAGCTGATGAATTACCTTTCTCGAGTAAACAAATTTTCCTAATCTTTCTGTTCAAGCGCCATCTAC | 0.97 RPM ratio (pull-down/input)
GATGATTGTTCTCCCAGCTGATGAATTCGAGACATCGAGTAAACAAATTTTCCTAATCTTTCTGTTCAAGCGCCATCTAC | 0.998 RPM ratio (pull-down/input)
GATGATTGTTCTCCCAGCTGATGAATTATCTTCGTCGAGTAAACAAATTTTCCTAATCTTTCTGTTCAAGCGCCATCTAC | 0.914 RPM ratio (pull-down/input)
GATGATTGTTCTCCCAGCTGATGAATTTTTGGCGTCGAGTAAACAAATTTTCCTAATCTTTCTGTTCAAGCGCCATCTAC | 0.913 RPM ratio (pull-down/input)
GATGATTGTTCTCCCAGCTGATGAATTCACTTACTCGAGTAAACAAATTTTCCTAATCTTTCTGTTCAAGCGCCATCTAC | 0.874 RPM ratio (pull-down/input)
GATGATTGTTCTCCCAGCTGATGAATTCGGACCGTCGAGTAAACAAATTTTCCTAATCTTTCTGTTCAAGCGCCATCTAC | 0.773 RPM ratio (pull-down/input)
GATGATTGTTCTCCCAGCTGATGAATTCGACGGGTCGAGTAAACAAATTTTCCTAATCTTTCTGTTCAAGCGCCATCTAC | 0.761 RPM ratio (pull-down/input)
GATGATTGTTCTCCCAGCTGATGAATTCCACATTTCGAGTAAACAAATTTTCCTAATCTTTCTGTTCAAGCGCCATCTAC | 0.944 RPM ratio (pull-down/input)
GATGATTGTTCTCCCAGCTGATGAATTTCAACCCTCGAGTAAACAAATTTTCCTAATCTTTCTGTTCAAGCGCCATCTAC | 0.794 RPM ratio (pull-down/input)
GATGATTGTTCTCCCAGCTGATGAATTTGATCACTCGAGTAAACAAATTTTCCTAATCTTTCTGTTCAAGCGCCATCTAC | 1.02 RPM ratio (pull-down/input)
GATGATTGTTCTCCCAGCTGATGAATTAGAGGTGTCGAGTAAACAAATTTTCCTAATCTTTCTGTTCAAGCGCCATCTAC | 0.96 RPM ratio (pull-down/input)
GATGATTGTTCTCCCAGCTGATGAATTTTGACTTTCGAGTAAACAAATTTTCCTAATCTTTCTGTTCAAGCGCCATCTAC | 0.911 RPM ratio (pull-down/input)
GATGATTGTTCTCCCAGCTGATGAATTTGAATAATCGAGTAAACAAATTTTCCTAATCTTTCTGTTCAAGCGCCATCTAC | 1.18 RPM ratio (pull-down/input)
GATGATTGTTCTCCCAGCTGATGAATTAATAGCGTCGAGTAAACAAATTTTCCTAATCTTTCTGTTCAAGCGCCATCTAC | 1.06 RPM ratio (pull-down/input)
